{
  "source": "PubChem BioAssay AID686978",
  "about": "(National Center for Advancing Translational Sciences (NCATS), 2013)",
  "note": "The campaign covered roughly 420,000 compounds. About 64,000 (15%) were called active. The shares of active, inactive and inconclusive entries below differ from those in the screen. Calls come from the whole dose curve; as a rule, active = well fitted inhibition curve with a large enough effect; inconclusive = small, poorly fitted or top-dose-only effect; inactive = flat fitted curve, though single readings scatter. Potencies of inconclusive entries are left out as doubtful fits. % is set by controls: 0 for no effect and ±100 for the full control effect; potency is the fitted concentration of half-maximal effect; tags give direction and shape of the fitted curve.",
  "data": [
    {"assay": "qHTS for Inhibitors of human tyrosyl-DNA phosphodiesterase 1 (TDP1): qHTS in cells in absence of CPT; note: nearly all actives have a fitted effect of over 55% in size", "conditions": "DT40 Tdp1-/- hTDP1 cells, no CPT, ATP luminescence, 48 h; activity change, negative = growth inhibition: at 46.2 µM (top of the series) unless noted", "outline": "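Stably hTDP1-transfected Tdp1-null chicken DT40 cells were treated with library compounds minus camptothecin and grown for at least 48 hr at 37 °C, after which cellular ATP was quantified by luminescence.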", "values": [
      {"smiles": "C=CCNC(=S)NNc1nc2c(c(=O)[nH]1)C1(CCCCC1)Cc1ccccc1-2", "activity change, negative = growth inhibition": "inactive: 7.28%"},
      {"smiles": "CC(=O)N1Cc2ccccc2CC1C(=O)N1CCN(c2ccccc2)CC1", "note": "(configuration not stated)", "activity change, negative = growth inhibition": "inactive: -13.7%"},
      {"smiles": "O=C1OCCN1C(=O)[C@H]1[C@H](c2ccccc2)C(c2ccccc2)=NN1c1ccc(Br)cc1", "Potency": "inconclusive [inhibitor, single point]"},
      {"smiles": "CC(C)(C)CNC(=O)C1(C)CCN1C(=O)C1(c2ccccc2)CC1", "note": "(configuration not stated)", "Potency": "inconclusive [inhibitor, single point]"},
      {"smiles": "Cc1ccc(N(C)C(=O)C2CCCN2S(=O)(=O)c2cccc3nsnc23)cc1", "note": "(configuration not stated)", "Potency": "inconclusive [inhibitor, single point]"},
      {"smiles": "COc1ccc(-c2cc(C(F)(F)F)nc(N3CCOCC3)n2)cc1OC", "Potency": "active: 10.3 µM"},
      {"smiles": "CCOC(=O)c1cc(-c2ccccc2)n(CC(=O)NCc2ccccc2OC)c1C", "Potency": "active: 16.4 µM"},
      {"smiles": "CCN(c1ccccc1)S(=O)(=O)c1ccc(NN)nc1", "Potency": "inconclusive [inhibitor, single point]"},
      {"smiles": "O=C1NC[C@H](Cc2ccccc2)N(C[C@H]2CCCN2C[C@H](Cc2ccccc2)N2C[C@H](Cc3ccc(O)cc3)N(CC3CCCCCC3)C(=O)C2=O)C1=O", "Potency": "inconclusive [inhibitor, single point]"},
      {"smiles": "COCc1c(C(=O)OCC(=O)NCCc2ccc(S(N)(=O)=O)cc2)oc2ccccc12", "activity change, negative = growth inhibition": "inactive: -2.58%"},
      {"smiles": "Nc1cccc(NP(=O)(c2ccccc2)c2ccccc2)c1", "activity change, negative = growth inhibition": "inactive: -3.38%"},
      {"smiles": "COc1ccc([C@H]2C[C@H](O)[C@@H](n3cc(-c4ccc(F)cc4)nn3)CN2Cc2cccs2)cc1", "Potency": "active: 5.17 µM"},
      {"smiles": "CN(C(=O)CSc1nnc2[nH]c(=O)cc(-c3ccccc3)n12)c1ccccc1", "activity change, negative = growth inhibition": "inactive: -8.32%"},
      {"smiles": "CC1(C)C2([N+](=O)[O-])CN3CC1([N+](=O)[O-])CN(C2)C3C(O)C(O)C(O)CO", "note": "(configuration not stated)", "activity change, negative = growth inhibition": "inconclusive: -35.3% [inhibitor]"},
      {"smiles": "COCCNC(=O)c1ccc2c(c1)N(Cc1cccc(Cl)c1)C(=O)c1ccccc1S2=O", "note": "(configuration not stated)", "Potency": "inconclusive [inhibitor, single point]"},
      {"smiles": "CCc1ccc(NC(=O)Nc2cc(C(=O)NCC3CCCO3)ccc2N2CC3CC(C2)c2cccc(=O)n2C3)cc1", "note": "(configuration not stated)", "activity change, negative = growth inhibition": "inactive: 17.5%"},
      {"smiles": "Cc1ccc(-c2n[nH]c(=O)c3ccccc23)cc1S(N)(=O)=O", "activity change, negative = growth inhibition": "inactive: -19.8%"},
      {"smiles": "C=CCNC(=O)CSc1nnc(-c2ccc(S(=O)(=O)N3CCCC3)cc2)n1C", "activity change, negative = growth inhibition": "inactive: 1.18%"},
      {"smiles": "Cn1c(=O)n(C)c2cc(S(=O)(=O)Nc3ccccc3C(=O)O)ccc21", "Potency": "inactive"},
      {"smiles": "O=c1cc(O)c2ccccc2[nH]1", "activity change, negative = growth inhibition": "inactive: -3.69%"},
      {"smiles": "CC(C)(C)NC(=O)C(c1c[nH]c2ccccc12)N(C(=O)Cn1nnc(-c2ccc(Cl)cc2)n1)c1ccccc1F", "note": "(configuration not stated)", "Potency": "inconclusive [inhibitor, single point]"},
      {"smiles": "COc1cc(Cl)ccc1OCc1cc(C(=O)N(C)Cc2cn(C)nc2C)no1", "Potency": "inconclusive [inhibitor, partial curve]"},
      {"smiles": "CCN1C/C(=C/c2ccc(N3CCOCC3)cc2)C(=O)/C(=C/c2ccc(N3CCOCC3)cc2)C1", "Potency": "inconclusive [inhibitor, single point]"},
      {"smiles": "CCN1C(=O)CSC1=NC12CC3CC(CC(C3)C1)C2", "Potency": "inconclusive [inhibitor, single point]"},
      {"smiles": "Fc1ccc(CNc2ncnc3c2c(-c2ccccc2)cn3-c2ccccc2)cc1", "Potency": "inconclusive [inhibitor, single point]"},
      {"smiles": "CCCC(=O)Nc1nc2c(OC)ccc(OC)c2s1", "Potency": "inconclusive [inhibitor, single point]"},
      {"smiles": "Cc1cc(=O)n2c3ccccc3n(CC(O)CN3CCCCC3)c2c1C#N", "note": "(configuration not stated)", "Potency": "inconclusive [inhibitor, single point]"},
      {"smiles": "COc1ccc(CCNC(=O)CCS(=O)(=O)c2ccc3c(c2)NC(=O)CO3)cc1OC", "activity change, negative = growth inhibition": "inactive: 28%"},
      {"smiles": "Cc1nc2ccccn2c1-c1ccnc(SCc2ccc(Cl)cc2)n1", "Potency": "inconclusive [inhibitor, single point]"},
      {"smiles": "CC(=O)Oc1ccc(-c2csc(Nc3ccccn3)n2)cc1", "Potency": "active: 7.31 µM"},
      {"smiles": "NC(=O)CSc1cn(Cc2ccccc2)c2ccccc12", "Potency": "inconclusive [inhibitor, single point]"},
      {"smiles": "CCOC(=O)c1cccc(-c2c(-c3ccccc3)ncc3cc(OC)c(OC)cc23)c1", "Potency": "inconclusive [inhibitor, single point]"},
      {"smiles": "CN(Cc1ccccc1)C(=O)CN(Cc1ccccc1)S(C)(=O)=O", "Potency": "inconclusive [inhibitor, single point]"},
      {"smiles": "COc1ccc(-c2nc(S(=O)(=O)c3ccccc3)c(N3CCN(C)CC3)o2)cc1", "Potency": "inconclusive [inhibitor, single point]"},
      {"smiles": "CCCC1(CCC)NC(=O)N(CC(=O)Nc2cccc(OC)c2)C1=O", "activity change, negative = growth inhibition": "inactive: -10%"},
      {"smiles": "CC(=O)c1c(O)c(C)c(O)c2c1OC1=CC(=O)C(C(C)=O)C(=O)[C@@]12C", "note": "(some centres not stated)", "Potency": "inconclusive [inhibitor, single point]"},
      {"smiles": "Cc1ccc(C)c(N2CCN(C(=O)CN3C(=O)CSc4c3c(C)nn4-c3ccccc3)CC2)c1", "Potency": "active: 25.9 µM"},
      {"smiles": "CC1(Cc2ccc(Cl)cc2)C(=O)Nc2ccc(-c3ccc(F)c(Cl)c3)cc21", "note": "(configuration not stated)", "Potency": "inconclusive [inhibitor, single point]"},
      {"smiles": "COc1ccc(N(C(C)C(=O)NCCSCc2cccc(Cl)c2)S(C)(=O)=O)cc1", "note": "(configuration not stated)", "Potency": "inconclusive [inhibitor, single point]"},
      {"smiles": "O=C(NCc1ccccc1)C1C(c2ccc3c(c2)OCO3)=Nc2ccccc2N1C(=O)c1ccco1", "note": "(configuration not stated)", "Potency": "inconclusive [inhibitor, single point]"},
      {"smiles": "CCN(CC)c1ccc(NC(=O)c2cccc(OC)c2)c(C)c1", "Potency": "inconclusive [inhibitor, single point]"},
      {"smiles": "COc1ccc(NC(=O)C(C/C=C(/C)Cl)C(C)=O)cc1", "note": "(configuration not stated)", "Potency": "inconclusive [inhibitor, single point]"},
      {"smiles": "Cc1ccc(NC(=O)N2CCCC2C(=O)NCc2ccc(Cl)cc2)cc1", "note": "(configuration not stated)", "activity change, negative = growth inhibition": "inactive: 1.04%"},
      {"smiles": "O=C(O)CSCC(=O)Nc1ccc(C(F)(F)F)cc1", "activity change, negative = growth inhibition": "inactive: 13.2%"},
      {"smiles": "CN(C)CCCN(C(=O)c1ccc(S(=O)(=O)N2CCCCC2)cc1)c1nc2cc3c(cc2s1)OCO3", "Potency": "inconclusive [inhibitor, single point]"},
      {"smiles": "O=c1cc(N2CCCCC2)c(-c2ccccc2)nn1Cc1ccccc1", "Potency": "inconclusive [inhibitor, partial curve]"},
      {"smiles": "FC(F)(F)c1ccccc1Cc1c(C2CCCCC2)nc2c3ccccc3ccn12", "Potency": "inconclusive [inhibitor, single point]"},
      {"smiles": "Cc1nc2sc3c(c2c(=O)[nH]1)CCC3", "activity change, negative = growth inhibition": "inactive: 12.3%"},
      {"smiles": "CSc1nc(O)c(C(c2ccc(F)cc2)c2c(O)nc(SC)[nH]c2=O)c(=O)[nH]1", "activity change, negative = growth inhibition": "inactive: -35.1%"},
      {"smiles": "Cc1cc(/C=C2\\NC(=O)NC2=O)c(C)n1-c1ccc(N2CCOCC2)cc1", "Potency": "active: 20.6 µM"},
      {"smiles": "CNCc1cc(C)n(-c2cc(S(=O)(=O)N3CCOCC3)ccc2N2CCCC2)c1C", "Potency": "inconclusive [inhibitor, single point]"},
      {"smiles": "O=c1c2c3c(sc2nc2n1CCC2)CCCC3", "activity change, negative = growth inhibition": "inactive: 6.77%"},
      {"smiles": "Cn1c(CNC(=O)c2ccccc2F)cc2ccccc21", "activity change, negative = growth inhibition": "inactive: -14.9%"},
      {"smiles": "CN(C)S(=O)(=O)N1CCC(Oc2cccc(C(=O)NCCC3=CCCCC3)c2)CC1", "Potency": "inconclusive [inhibitor, single point]"},
      {"smiles": "COc1ccc(N(C)C(=O)NCc2noc3ccc(C)cc23)c(OC)c1", "Potency": "inconclusive [inhibitor, single point]"},
      {"smiles": "COc1cccc(/C=C/C(=O)Nc2ccc(N3CCOCC3)cc2)c1OC", "Potency": "inconclusive [inhibitor, single point]"},
      {"smiles": "CC(=O)Nc1ccccc1OCC(=O)NCC(F)(F)F", "activity change, negative = growth inhibition": "inactive: 1.17%"},
      {"smiles": "Cc1ccccc1Cn1c(=O)n(CCCC(=O)NCc2ccco2)c(=O)c2ccccc21", "Potency": "inconclusive [inhibitor, single point]"},
      {"smiles": "CC(C)(C)C1CCC(CN2C(Nc3ccccc3)=NC[C@@H]2Cc2ccccc2)CC1", "note": "(some centres not stated)", "Potency": "active: 13 µM"},
      {"smiles": "NC(=O)c1ccc(NC(=O)CSc2cn(CC(=O)N3CCOCC3)c3ccccc23)cc1", "activity change, negative = growth inhibition": "inactive: -13.3%"},
      {"smiles": "NNc1nnc2c3cc(F)ccc3n(CCc3ccccc3)c2n1", "Potency": "active: 16.4 µM"},
      {"smiles": "COc1ccc(/C=N/NC(=O)c2nn(C)cc2Br)cc1CSCc1ccco1", "Potency": "inconclusive [inhibitor, single point]"},
      {"smiles": "CC(C)(C)C1CCc2nc(NC(=O)Cc3ccc(Cl)cc3)sc2C1", "note": "(configuration not stated)", "Potency": "active: 7.31 µM"},
      {"smiles": "COc1cc(CN2CCC(C(=O)NC(c3ccc(F)cc3)c3ncccc3C)CC2)cc(OC)c1", "note": "(configuration not stated)", "Potency": "inconclusive [inhibitor, single point]"},
      {"smiles": "O=C1CCC[C@@H]2[C@@H](Cc3ccccc3)[C@@H](Nc3ccccc3)C[C@@H]3CCN1[C@@H]32", "Potency": "active: 11.2 µM"},
      {"smiles": "OC(COc1cccc2ccccc12)CN1CCN(c2ccc(Cl)cc2)CC1", "note": "(configuration not stated)", "Potency": "active: 23.1 µM"},
      {"smiles": "CCCn1c(N)c(C(=O)CSc2nnc(Cc3ccccc3)o2)c(=O)n(C)c1=O", "Potency": "active: 23.1 µM"},
      {"smiles": "CCCNC(=O)N1CCN(S(=O)(=O)c2ccc(C)cc2)CC1", "activity change, negative = growth inhibition": "inactive: -1.13%"},
      {"smiles": "Cc1cccc(NC(=O)C2CCCN(S(=O)(=O)c3c(C)noc3/C=C/N(C)C)C2)c1C", "note": "(configuration not stated)", "Potency": "inconclusive [inhibitor, single point]"},
      {"smiles": "CCCCc1ncc(CN2CCC(CC3CCCCO3)(C(=O)OCC)CC2)[nH]1", "note": "(configuration not stated)", "activity change, negative = growth inhibition": "inactive: -27.3%"},
      {"smiles": "COCCN(Cc1cc2cc3c(cc2nc1Cl)OCO3)C(=O)c1ccc(C)cc1", "Potency": "active: 13 µM"},
      {"smiles": "O=C(NC(=S)NCc1ccc2c(c1)OCO2)c1ccccc1", "activity change, negative = growth inhibition": "inactive: 1.33%"}
    ]}
  ]
}
